Results from patent US20230220053A1 (published 2023).

How the values were obtained:
[1] = molecular target: S1 protein of SARS-CoV-2 (recombinant, construct not stated) (SARS-CoV-2); assay: ELISA, S1 coated, scFv titrated, anti-Flag HRP
[2] = molecular target: T1, RBD of SARS-CoV-2 spike protein S1 (recombinant, construct not stated) (SARS-CoV-2); assay: ELISA, RBD coated, scFv titrated, anti-Flag HRP
T1 construct: also called SARS-COV-2, RBD; RBD-AF647

[3] = molecular target: S1-Fc (SARS-CoV-2 S1 protein, Fc fusion) (SARS-CoV-2); assay: SPR (Biacore T200), S1 captured on anti-human Fc chip, scFv injected

B1: 2020EP54-B12 scFv (scFv)
scFv: [about 100 residues omitted]VTRVGFDYWGQGTLVTVSSGGGGSGGGGSGGGGSSYELTQPPSVSVAPGKTARITCGGNNIGSKSVHWYQQKPGQAPVLVIYYDSDRPSGIPERFSGSNSGNTATLTISRVEAEDEADYYCQVWDSSSDVVFGGGTKLTVL
notes: also called 2020EP054-B12
**Q.** What does the source list for B1?
**A.** EC50 [1]: 2.68 nM; EC50 [2]: 0.853 nM; Kd [3]: 6.54 nM; koff [3]: 0.00383 s⁻¹; kon [3]: 586000 M⁻¹ s⁻¹
